Publication PMC2902519

Biological target: FLAG-tagged wild type optineurin (FLAG-OPTNWT) (human) (UniProt Q96CV9)
Test: native gel or EMSA; native blue gel electrophoresis, data not shown; 420 kDa homo-hexamer

FLAG-tagged wild type optineurin (FLAG-OPTNWT) (a stretch of the chain, chain not printed) (natural protein; other documents disagree on this pair)
stoichiometry N: 6
